# Source: the supplement of paper PMC10126150
# Values marked as one replicate rest on one cluster of the flow cell; about a third of the high ones do not repeat.
# Test system: ATP
# Assay: switch fluorescence ratio, 500 uM ATP over buffer (Cy3 cluster intensity, sum of 5 cycles each) (fold (ratio)); higher = stronger signal-on switching upon ATP binding; sequences stand for … in TCGTCGGCAGCGTCAGATGTGTATAAGAGACAGTTTTTTTTTTTTTTTTTTTTTTTTT…TC
# Details: aptamer strand: ATP DNA aptamer (quencher-CACCTGGGGGAGTATTGCGGAGGAAGG + anchor), 100 nM annealed; ATP concentration: 500 uM; one replicate
# Procedure, shortened: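 The quencher-labelled ATP aptamer, at 100 nM, was annealed to Cy3-labelled switching-strand clusters on a modified Illumina MiSeq flow-cell. The clusters were imaged in selection buffer, then after 15 min with 500 uM ATP at 22 °C, and this buffer/ATP cycle ran five times with NaOH stripping and re-annealing between runs. Per-cluster fluorescence ratios, summed target-cycle over summed buffer-cycle Cy3 intensity, were averaged per switch-domain sequence. Clusters outside 100-1000 RFU were excluded.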
# 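Also: ATP exposure 15 min at 22 °C before imaging.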
sequence,measurement,value
AAATCTACTC,switch fluorescence ratio,1.03
TCGGACCACC,switch fluorescence ratio,1.16
AGTTGTAGAA,switch fluorescence ratio,1.03
ATGTTGATAG,switch fluorescence ratio,1.03
GTGCGGGACA,switch fluorescence ratio,0.998
GCTGAGTGAT,switch fluorescence ratio,1.04
AGGGAGAT,switch fluorescence ratio,1.02
CGCTACGCCC,switch fluorescence ratio,2.48
CATGTAGGGT,switch fluorescence ratio,1.1
ACTTAACTTT,switch fluorescence ratio,1.08
TCGGAACCAC,switch fluorescence ratio,1.1
AACTAAGTCA,switch fluorescence ratio,0.959
TTGATGCCAT,switch fluorescence ratio,1.21
CGTAAGGTTG,switch fluorescence ratio,0.945
TAAATTTGT,switch fluorescence ratio,1.04
GGAAGCCAAG,switch fluorescence ratio,0.998
AATTTCCGA,switch fluorescence ratio,1.07
GCGCTTGCGG,switch fluorescence ratio,1.02
CACAGTGCT,switch fluorescence ratio,1.01
AATGTATTAA,switch fluorescence ratio,1.02
CCCCATCGCC,switch fluorescence ratio,1.06
GAATGGACCT,switch fluorescence ratio,1.21
AGTATTCAAC,switch fluorescence ratio,0.974
TGAAAACTTT,switch fluorescence ratio,0.993
GAGGGGGTAT,switch fluorescence ratio,0.991
AGGATGAGGG,switch fluorescence ratio,1.03
CTAACTCGTG,switch fluorescence ratio,0.916
TCCAGCATA,switch fluorescence ratio,1.89
GTTGTTCTGG,switch fluorescence ratio,0.965
CTGCCTCCCT,switch fluorescence ratio,1.81
CTAGGCATGT,switch fluorescence ratio,1
AGTTGGAATA,switch fluorescence ratio,1
TTCTGTCGCG,switch fluorescence ratio,1
GCGGACACAG,switch fluorescence ratio,1
CACCGGCTCA,switch fluorescence ratio,1.32
ACTAGTGGG,switch fluorescence ratio,1
ATTAACGGGA,switch fluorescence ratio,1.04
AGTTATTTA,switch fluorescence ratio,0.996
GGAAATTTCC,switch fluorescence ratio,0.983
TCGATCTTAT,switch fluorescence ratio,1.01
ATAGTGCTTT,switch fluorescence ratio,0.97
GGTAGCTAA,switch fluorescence ratio,1.3
ACAGAAACTC,switch fluorescence ratio,1.07
ACTCTAGTCT,switch fluorescence ratio,1.02
TAATTCAATT,switch fluorescence ratio,1.03
GTTCGGGCGA,switch fluorescence ratio,0.993
GGGTTACTGA,switch fluorescence ratio,1.03
GATTGCAATG,switch fluorescence ratio,1.1
TGTCTATATA,switch fluorescence ratio,0.995
ATGTGTACTG,switch fluorescence ratio,0.992
TGACGATTAT,switch fluorescence ratio,1.26
TTGCATACAT,switch fluorescence ratio,1.32
AAGGCCAGGA,switch fluorescence ratio,1.01
TCGAACGGT,switch fluorescence ratio,0.984
CTCGAATGAG,switch fluorescence ratio,1.01
TTGTCAGCT,switch fluorescence ratio,0.986
ATTACTTT,switch fluorescence ratio,1.03
AGGCTGTCCG,switch fluorescence ratio,0.987
TTTGATGATT,switch fluorescence ratio,1.04
GTTGTAGCAG,switch fluorescence ratio,0.983
ACGAACAGG,switch fluorescence ratio,1.55
TTCATCTCGT,switch fluorescence ratio,1.02
TAGGAAACAG,switch fluorescence ratio,1.02
CACTGGTTTC,switch fluorescence ratio,1.01
TAAGTATGGG,switch fluorescence ratio,0.998
ATGGGATTTT,switch fluorescence ratio,0.981
GTCCACGCAC,switch fluorescence ratio,2.02
TTCTAAATG,switch fluorescence ratio,0.994
AACGTAAG,switch fluorescence ratio,1.05
TGCGGGTCTT,switch fluorescence ratio,0.966
ATGTCGGCGT,switch fluorescence ratio,1.05
CCCTGCCCTG,switch fluorescence ratio,1.07
GAGGCGGT,switch fluorescence ratio,1.01
TAGCGGCAAA,switch fluorescence ratio,0.998
AGGTGACATA,switch fluorescence ratio,1.01
AATTTCTG,switch fluorescence ratio,1
AGGGCTCTGT,switch fluorescence ratio,1.02
TAGGTTTTAT,switch fluorescence ratio,1.01
AGTAATTCGT,switch fluorescence ratio,1.03
TGTCGAATGT,switch fluorescence ratio,0.97
TCATTCCGTG,switch fluorescence ratio,1.07
TAGTGTACCA,switch fluorescence ratio,1.11
CATTGCTGCT,switch fluorescence ratio,0.98
ATGGATGTTT,switch fluorescence ratio,0.982
GGGGGTGATA,switch fluorescence ratio,0.998
GTCTAAGACC,switch fluorescence ratio,0.998
CGATGACAAC,switch fluorescence ratio,1.13
GACAGGAAAG,switch fluorescence ratio,0.977
GGCAGTTGAG,switch fluorescence ratio,1.04
GGACGTGGTG,switch fluorescence ratio,0.961
AAGGGAAC,switch fluorescence ratio,0.97
TTTCTCGATA,switch fluorescence ratio,0.971
ACGGCCAGGT,switch fluorescence ratio,1.82
AAGTGGGTAG,switch fluorescence ratio,0.99
TTGCTACGGT,switch fluorescence ratio,1.08
ACACATAAG,switch fluorescence ratio,1.02
AAGACGGTAG,switch fluorescence ratio,1.01
TAAGTCAGTG,switch fluorescence ratio,1.02
CAAGCTCAGA,switch fluorescence ratio,1.03
GGATGGGAGT,switch fluorescence ratio,0.98
TTGCAGTCAT,switch fluorescence ratio,0.984
ACACGTGATG,switch fluorescence ratio,1.03
CAGAACAAGC,switch fluorescence ratio,1.02
TATATCAAG,switch fluorescence ratio,1.03
GGGTAAGACC,switch fluorescence ratio,0.959
ATTGCTAGTA,switch fluorescence ratio,0.984
TCGGATTG,switch fluorescence ratio,0.962
ATATGGTTTT,switch fluorescence ratio,1.03
CTCTTTCCGG,switch fluorescence ratio,0.939
GGCGGGGAGA,switch fluorescence ratio,0.987
GTCAGAAGTG,switch fluorescence ratio,0.947
GCAAAATTGA,switch fluorescence ratio,1.04
GCAAGGGGGC,switch fluorescence ratio,1.08
AGTGTGTAAC,switch fluorescence ratio,0.982
ATTGCTGGTG,switch fluorescence ratio,1.11
TCTTGGGTCA,switch fluorescence ratio,1.08
CGGACCGCAG,switch fluorescence ratio,1.24
CATAGAGTT,switch fluorescence ratio,0.971
GTTCGGGATA,switch fluorescence ratio,1.02
TCTCACCGCA,switch fluorescence ratio,3.73
GAGGAGGCG,switch fluorescence ratio,0.963
TTCGCGAGGA,switch fluorescence ratio,1.06
TTTATTCAAA,switch fluorescence ratio,1.01
CACGAGTAGC,switch fluorescence ratio,0.985
TAGATGGCGT,switch fluorescence ratio,1.01
TTGCCGAACC,switch fluorescence ratio,1.25
GATAACGACC,switch fluorescence ratio,1.22
AATGCCTAAA,switch fluorescence ratio,0.998
TCCAAAATGT,switch fluorescence ratio,1.01
TCTATT,switch fluorescence ratio,0.984
ATCTCGAGA,switch fluorescence ratio,0.998
TCGTTAAGTT,switch fluorescence ratio,1
TCATATGAAT,switch fluorescence ratio,1
ACGGGGGACC,switch fluorescence ratio,0.994
TGACTTATTG,switch fluorescence ratio,1.04
GACTGAAGCA,switch fluorescence ratio,1.28
GTGGACGCAC,switch fluorescence ratio,1.21
TACTAATTAC,switch fluorescence ratio,1.1
GGTAGTTGGG,switch fluorescence ratio,1.03
TACTAGCCGC,switch fluorescence ratio,1.08
TAACGTTATA,switch fluorescence ratio,1.05
CGAATATAGG,switch fluorescence ratio,0.976
GCTAATCGAC,switch fluorescence ratio,1.17
TAGATGAGTG,switch fluorescence ratio,1.01
ACCCTTGGT,switch fluorescence ratio,1.16
TCTCAATACC,switch fluorescence ratio,1.8
ATGGGCATCA,switch fluorescence ratio,0.963
CTTAGTAGCT,switch fluorescence ratio,0.982
GGCGGCCCGT,switch fluorescence ratio,0.984
ATAAGTATTC,switch fluorescence ratio,0.974
CGGGCTAATG,switch fluorescence ratio,1.01
GCGAAATTAC,switch fluorescence ratio,1.85
TTGCCTGGCG,switch fluorescence ratio,0.975
TCGTCGGGAT,switch fluorescence ratio,1.01
ACCACTTAGA,switch fluorescence ratio,1.07
CAAAGGCCGG,switch fluorescence ratio,1.03
CTTTAGACTA,switch fluorescence ratio,0.944
ACGCTAAGGT,switch fluorescence ratio,1.11
TGTTTCGTC,switch fluorescence ratio,1.01
TTGGCATGT,switch fluorescence ratio,1.01
GTTATGAAGG,switch fluorescence ratio,1.02
GGTTTCGACC,switch fluorescence ratio,0.997
AACGCACACG,switch fluorescence ratio,1.43
ACCAACGCGT,switch fluorescence ratio,1.05
TCCCATGCCG,switch fluorescence ratio,0.979
AACGATATAC,switch fluorescence ratio,2.17
GCTACCCGAA,switch fluorescence ratio,0.977
GAGGGTATGC,switch fluorescence ratio,0.98
TCTCATAACG,switch fluorescence ratio,1.01
ACTGTCTATT,switch fluorescence ratio,1.01
TTAGGATTAT,switch fluorescence ratio,0.994
GGTACCTATT,switch fluorescence ratio,1.08
TGGACGGGGT,switch fluorescence ratio,1.01
CCTCGTTTCA,switch fluorescence ratio,1.01
GAGGAGAATC,switch fluorescence ratio,0.988
TAAGCAACGG,switch fluorescence ratio,1.09
TCCCTGTGAG,switch fluorescence ratio,1.01
ACGGATGACA,switch fluorescence ratio,1.05
GTTCGCGTGG,switch fluorescence ratio,0.938
CGTTTCATTC,switch fluorescence ratio,0.983
ATAGGAAGCG,switch fluorescence ratio,0.988
AGAACTGGAT,switch fluorescence ratio,1.18
GTAGGGCTGC,switch fluorescence ratio,0.937
GTGCTGAAGG,switch fluorescence ratio,0.963
TGTTATTTAT,switch fluorescence ratio,0.971
AGGCTCCGGT,switch fluorescence ratio,1.01
TCTCTATGGT,switch fluorescence ratio,0.959
TCCTAGAATG,switch fluorescence ratio,1.02
TCGGCAGCGT,switch fluorescence ratio,0.991
ACTAGGGAGG,switch fluorescence ratio,1.04
ATAAGTTACG,switch fluorescence ratio,1.09
ATGTATGGAA,switch fluorescence ratio,1.01
AGGCTGGTAA,switch fluorescence ratio,1.03
GTGCGTTAAC,switch fluorescence ratio,1.03
TAAACTATTC,switch fluorescence ratio,0.993
CTCGCCAATT,switch fluorescence ratio,1.59
TCGCGAACCC,switch fluorescence ratio,1.1
GTTCGATTTC,switch fluorescence ratio,0.965
TCGAGACTTG,switch fluorescence ratio,1.07
CGTAGCCGAA,switch fluorescence ratio,1.02
TATGGCAAAG,switch fluorescence ratio,1.02
